Measurements as given in PubChem BioAssay AID1347165 (National Center for Advancing Translational Sciences (NCATS), 2019).
The campaign covered roughly 220,000 compounds. About 5,700 (2.6%) were called active. Inconclusive results, whose numbers are uncertain, are shown with a selection of clear calls. The call rests on the fitted dose curve; in most records, active means well fitted inhibition curve with a large enough effect; inconclusive means small, poorly fitted or top-dose-only effect; inactive means no such curve, though single readings can be large or run the other way. Potencies beside an inconclusive call are fits to weak or partial responses and may not hold up.

These molecules were tested against Lysine-specific demethylase 5B (Homo sapiens) (UniProt Q9UGL1) (assay: Primary screen for KDM5B Histone Demethylases FDH-coupled qHTS). Conditions: FDH-coupled NADH fluorescence (FDH is formaldehyde dehydrogenase); activity change, negative = inhibition: at 57.7 µM (top of the series) unless noted.
How it was run: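 qHTS format, multiple compound concentrations. Buffer 50 mM HEPES pH 7.5/0.01% Tween-20; 200 nM KDM5BΔAP final; 10 min compound preincubation; substrate-mix levels 12.5 µM peptide, 25 µM α-KG, 0.25 mM NAD⁺; 30 min RT; ΔRFU.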
Further: nearly all actives have a fitted effect of over 70% in size.
Potency means the concentration at half of the fitted maximal effect; tags describe the fitted curve by direction and shape.
Wherever activity change, negative = inhibition is given: 0% is about no effect.

Sequence of UniProt Q9UGL1 (Q9UGL1 whole entry, looked up): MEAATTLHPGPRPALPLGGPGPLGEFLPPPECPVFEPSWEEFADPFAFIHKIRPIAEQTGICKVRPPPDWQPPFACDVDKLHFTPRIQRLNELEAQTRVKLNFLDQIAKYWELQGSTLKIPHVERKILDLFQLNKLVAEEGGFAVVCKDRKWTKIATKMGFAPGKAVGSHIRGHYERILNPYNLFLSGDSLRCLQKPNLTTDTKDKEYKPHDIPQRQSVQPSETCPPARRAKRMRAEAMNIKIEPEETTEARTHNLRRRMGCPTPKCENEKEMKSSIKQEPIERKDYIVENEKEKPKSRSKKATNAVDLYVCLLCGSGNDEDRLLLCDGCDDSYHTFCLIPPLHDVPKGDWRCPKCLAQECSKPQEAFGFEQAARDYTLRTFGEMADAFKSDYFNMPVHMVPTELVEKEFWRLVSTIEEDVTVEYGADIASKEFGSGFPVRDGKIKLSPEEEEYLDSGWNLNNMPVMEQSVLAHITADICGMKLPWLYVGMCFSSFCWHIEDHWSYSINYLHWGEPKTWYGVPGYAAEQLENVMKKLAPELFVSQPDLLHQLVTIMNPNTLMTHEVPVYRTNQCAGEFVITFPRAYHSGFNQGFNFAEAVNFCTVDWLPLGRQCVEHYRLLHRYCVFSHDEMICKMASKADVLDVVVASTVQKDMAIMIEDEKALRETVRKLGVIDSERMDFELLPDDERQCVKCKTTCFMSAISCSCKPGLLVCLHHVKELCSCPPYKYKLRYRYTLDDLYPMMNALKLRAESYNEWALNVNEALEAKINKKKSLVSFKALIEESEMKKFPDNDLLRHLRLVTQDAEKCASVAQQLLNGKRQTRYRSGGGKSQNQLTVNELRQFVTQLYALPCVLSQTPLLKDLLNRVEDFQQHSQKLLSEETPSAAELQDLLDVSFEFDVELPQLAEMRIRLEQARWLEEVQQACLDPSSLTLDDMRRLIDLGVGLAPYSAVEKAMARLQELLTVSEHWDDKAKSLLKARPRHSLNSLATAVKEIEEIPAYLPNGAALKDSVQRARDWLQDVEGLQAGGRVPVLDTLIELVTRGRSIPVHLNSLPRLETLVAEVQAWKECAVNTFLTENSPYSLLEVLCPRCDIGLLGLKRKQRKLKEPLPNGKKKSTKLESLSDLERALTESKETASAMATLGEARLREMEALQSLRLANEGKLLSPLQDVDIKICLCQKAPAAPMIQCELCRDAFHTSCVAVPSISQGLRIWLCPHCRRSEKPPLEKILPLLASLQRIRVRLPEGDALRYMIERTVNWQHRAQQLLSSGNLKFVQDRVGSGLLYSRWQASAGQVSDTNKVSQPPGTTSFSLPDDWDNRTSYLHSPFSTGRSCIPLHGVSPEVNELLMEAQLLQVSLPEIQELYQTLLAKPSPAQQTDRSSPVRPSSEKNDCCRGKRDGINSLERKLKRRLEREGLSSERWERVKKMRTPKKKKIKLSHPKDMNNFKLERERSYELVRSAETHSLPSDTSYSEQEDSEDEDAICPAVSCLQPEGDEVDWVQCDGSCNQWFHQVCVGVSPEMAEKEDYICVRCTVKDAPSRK

Compound	Potency	activity change, negative = inhibition
CCc1ccc(NCc2cc3ccc(OC)cc3n(CC(=O)Nc3cccc(Cl)c3C)c2=O)cc1	inconclusive: 2 µM [inhibitor, full curve, poor fit]	–
CCOCCCNC(=O)C1CCCCC1	inactive	–
COc1cc(Nc2nc3ccccc3nc2NS(=O)(=O)c2cccs2)cc(OC)c1	inactive	–
NCC(=O)N1CCC(n2nccc2NC(=O)c2cccc(F)c2)CC1	inconclusive: 14.1 µM [inhibitor, partial curve, poor fit]	–
CN1CCCNc2nc3ccccc3nc21	inconclusive: 28.2 µM [inhibitor, partial curve, poor fit]	–
CC(=O)c1cccc(NC(=O)c2sc3nc4c(cc3c2N)CCCC4)c1	inconclusive: 35.5 µM [inhibitor, single point]	–
Cc1ccccc1-n1cc(-c2ccnc(NC3CCN(C)CC3)n2)cn1	active: 28.2 µM	–
Cc1ccc(CN(C)C(=O)COc2ccc3ccc(=O)oc3c2)cc1	inconclusive: 22.4 µM [inhibitor, partial curve, poor fit]	–
N#Cc1nc(-c2ccco2)oc1N1CCN(CC(=O)N(c2ccccc2)C2CCS(=O)(=O)C2)CC1 (stereo not drawn)	inconclusive: 25.1 µM [inhibitor, partial curve, poor fit]	–
c1ccc(N2CCN(c3ncnc4[nH]ncc34)CC2)cc1	inconclusive: 39.8 µM [inhibitor, single point]	–
O=S(=O)(c1ccc2c(c1)CCC2)N1CCCCC1c1nc(CCOCC2CC2)no1 (stereo not drawn)	inconclusive: 15.8 µM [inhibitor, single point]	–
COCc1nnc2n1CCC(NC(=O)c1ccoc1)CC2 (stereo not drawn)	inconclusive: 20 µM [inhibitor, partial curve]	–
CC1CCc2c(sc(NC(=O)c3ccco3)c2C(=O)O)C1 (stereo not drawn)	inconclusive: 22.4 µM [inhibitor, single point]	–
COc1cccc(F)c1-c1ncc2c(n1)OCCN(CC1CC1)C2=O	active: 28.2 µM	–
CN(Cc1ccc(C2CC(=O)Nc3n[nH]c(C4CCC4)c32)o1)S(C)(=O)=O (stereo not drawn)	inconclusive: 14.1 µM [inhibitor, partial curve, poor fit]	–
O=C(CN1C(=O)C(c2ccccc2)=NC12CCCC2)NCc1ccccc1Cl	inactive	–
Cc1ccc(CNC(=O)c2ccc(Cl)c(-n3c(C)nc4cccnc43)c2)cc1	inactive	–
Cc1ccc(Cl)cc1-n1c(=O)cc(N2CCN(c3ccccc3)CC2)[nH]c1=O	–	inconclusive: -31.1% [inhibitor]
Cc1occc1C(=O)N1CCCn2ccnc2C1c1cnn(C)c1 (stereo not drawn)	inconclusive: 20 µM [inhibitor, single point]	–
COC(=O)c1cccc(NC(=S)N[C@H]2CO[C@H]3[C@@H]2OC[C@H]3OC(=O)Nc2cccc(C(F)(F)F)c2)c1	inconclusive: 22.4 µM [inhibitor, partial curve, poor fit]	–
O=C(CC1N=C2c3ccccc3N=C(SCc3cccc(Cl)c3)N2C1=O)NC1CCCCC1 (stereo not drawn)	inconclusive: 35.5 µM [inhibitor, partial curve, poor fit]	–
COc1ccc(NC(=O)CSc2nnc(-c3nnn(-c4ccc(F)cc4)c3C)o2)cc1	inconclusive: 28.2 µM [inhibitor, partial curve, poor fit]	–

Compound	Potency	activity change, negative = inhibition
Nc1ccccc1C(=O)Nc1ccccn1	inconclusive: 31.6 µM [inhibitor, partial curve, poor fit]	–
CCS(=O)(=O)c1ccc2oc([C@H]3CCN(Cc4c[nH]c5ccccc45)C3)nc2c1	active: 31.6 µM	–
COc1ccc(-c2nc(C3CC3)nc3c2CCN(Cc2ccsc2)CC3)cc1	active: 79.4 µM	–
CC(=O)N1CCN(c2nc(-c3ccccc3)nc3ccccc23)CC1	inactive	–
COC[C@@H]1CN(c2ncccn2)C[C@H]1C(=O)NCc1c(C)n[nH]c1C	active: 28.2 µM	–
CSc1ccc(NC(=O)c2cc(-c3ccc[nH]3)n[nH]2)cc1	inactive	–
Cc1ccc(OCC(=O)Nc2cccc(C(=O)OCc3cc(=O)n4cc(C)sc4n3)c2)cc1	inconclusive: 35.5 µM [inhibitor, single point]	–
COC(=O)c1cccc(Nc2c(-c3cc(Br)ccc3O)nc3nc[nH]n23)c1	inconclusive: 17.8 µM [inhibitor, partial curve, poor fit]	–
Cc1cc(C)cc(OCC(=O)Nc2ccc(-c3nc4ncccc4o3)cc2C)c1	–	inconclusive: -40.1% [inhibitor]
COc1ccc(NC(=O)c2cc(OC)nc3ccccc23)cc1	inactive	–
Cc1ccc2c(c1)Oc1cc(Cl)c(S(=O)(=O)N(C)Cc3ccccc3)cc1C(=O)N2	inactive	–
Fc1ccc(CN2CC[C@H](c3nnc(-c4ccc(Cl)cc4)o3)C2)cc1	inconclusive: 35.5 µM [inhibitor, single point]	–
COc1ccc(CC(=O)N/N=C/c2cc([N+](=O)[O-])cc(Br)c2O)cc1	inconclusive: 14.1 µM [inhibitor, partial curve, poor fit]	–
Cc1cnc(C(=O)N2CCCN(Cc3ccncc3)C(c3ccccc3)CC(=O)NCC2)cn1 (stereo not drawn)	inconclusive: 39.8 µM [inhibitor, single point]	–
COc1ccc(CN2C=C(C(=O)OCc3noc(-c4ccco4)n3)C(C)=NS2(=O)=O)cc1	inconclusive: 20 µM [inhibitor, single point]	–
CCn1ccnc1C1CCN(c2nc3ccccc3o2)CC1	inactive	–
COc1ccc(-c2nc3cc(C)ccc3cc2CN2CCN(C)C(CCO)C2)cc1 (stereo not drawn)	inconclusive: 31.6 µM [inhibitor, partial curve, poor fit]	–
COCCNc1cc(N2CCN(C3CCCCC3)CC2)c2noc3c2c1C(=O)c1ccccc1-3	inconclusive: 5.62 µM [inhibitor, full curve, poor fit]	–
CCCCCCCCOC(=O)C1C(c2ccccc2)C(C(=O)O)C1c1ccccc1 (stereo not drawn)	inactive	–
COc1ccc(CN2Cc3[nH]cnc3C[C@H]2C(=O)NC2CCCCC2)c2ccccc12	active: 35.5 µM	–
Cc1c(C#N)c(NC(=O)CSc2nnc(C)n2-c2ccccc2)n(Cc2ccccc2)c1C	inactive	–
